Laboratory results reported in PubChem BioAssay AID463173 (ICCB-Longwood Screening Facility, Harvard Medical School, 2010).
Screen size: about 52,000 compounds; about 4,300 (8.3%) were called active. No stated cut-off is given here; in the data, active means survival mostly below about 52% (no sharp cut-off); inactive means mostly above about 56%. The list shows a part of the results.

system: DeltatarO mutant; test: S. aureus survival, RN4220 and DeltatarO strains – OD600, teichoic acid synthesis inhibitors, primary screen (AID 463173); conditions: S. aureus RN4220 wild type/DeltatarO growth, OD600, 18 h, hits give low values, screened at 18.75 µg/mL (by protocol)

SMILES | survival
COC(=O)c1ccccc1NC(=O)Cn1c(=O)cc(C)c2c(C)nn(C)c21 | inactive: 82%
Cc1cc(C)c2c(c1)c(C)cc1nnc(SCC(=O)c3ccc(F)cc3)n12 | inactive: 63%
CCCCC(=O)N1CCc2cc(OC)c(OC)cc2C1COc1ccc(OC)cc1 (configuration not stated) | inactive: 102%
Fc1ccc(CSc2nncn2NCc2ccc3c(c2)OCO3)cc1 | inactive: 74%
Cc1ccc(C)c(Cn2c(C(=O)O)c(CNCc3cccs3)c3ccccc32)c1 | inactive: 79%
Cc1cccc(C(=O)Nc2ccc3nc(SCCOc4ccccc4)sc3c2)c1 | inactive: 85%
COc1ccc(CCNc2nc(SCc3ccc(Cl)cc3)nc3ccccc23)cc1OC | inactive: 95%
Nc1ncc(S(=O)(=O)Nc2ccc(F)cc2F)cn1 | inactive: 84%
COc1ccc(C2C=C(c3ccccc3)Nc3nc(NC(=O)/C=C/c4ccccc4Cl)nn32)cc1 (configuration not stated) | inactive: 96%
CCc1cnc2c(c1SCC(=O)NCc1ccc(F)cc1)c(=O)n(C)c(=O)n2C | inactive: 119%
N#CC1(c2ccccc2)CCCN1C(=O)c1ccco1 (configuration not stated) | inactive: 58%
Nc1c(C(=O)Nc2cccc(F)c2)c2ccccn2c1C(=O)c1ccccc1 | inactive: 78%
CC(=O)c1ccc(NC(=O)CN(C)S(=O)(=O)c2cnc[nH]2)cc1 | inactive: 100%
Cc1cc(Cl)ccc1OCC(=O)N1CCC(c2nc3ccccc3s2)CC1 | active: 21%
COc1ccc(CNC(=O)Nc2cn(CC(C)C)c(=O)c3ccccc23)cc1 | inactive: 75%
CN(C)CCN1C(=O)C(=O)/C(=C(/O)c2ccc(S(=O)(=O)N(C)C)cc2)C1c1ccccc1 (configuration not stated) | inactive: 57%
O=C(Nc1cccc(-c2nc3ccccc3o2)c1)C(F)(F)F | inactive: 61%
Cc1ccc(OCCSc2nc(C)c(Cc3ccccc3)c(=O)[nH]2)cc1 | inactive: 58%
Cc1ccn2c(Nc3ccc(C(C)C)cc3)c(-c3cccnc3)nc2c1 | inactive: 60%
Cc1cc(C)c(NC(=O)CSc2nncn3c2cc2oc(C)cc23)c(C)c1 | inactive: 65%
Cc1cc(-c2ccccc2)n2nc(-c3ccccc3)cc2n1 | active: -3%
CN(C)CCNC(=O)C(=O)NCC(c1ccc2c(c1)OCO2)N1CCOCC1 (configuration not stated) | inactive: 69%
Cc1c(C(=O)O)oc2c1-c1nn(Cc3ccc(Cl)cc3)cc1CC2 | inactive: 89%

SMILES | survival
CCOc1ccc(C(c2c(O)cc(C)n(Cc3ccco3)c2=O)N2CCCCC2)cc1 (configuration not stated) | inactive: 73%
Cc1ccc2cccc(NC(=O)C(C)Oc3ccc(Cl)cc3Cl)c2n1 (configuration not stated) | active: -2%
O=C(NCCC1CCCC1)c1cccs1 | inactive: 82%
COc1cccc(CNS(=O)(=O)c2ccc3c(c2)C(C(C)C)C(=O)N3)c1 (configuration not stated) | inactive: 129%
CCCCOc1ccc(C(=O)OCC2CCCN3CCCCC23)cc1OC (configuration not stated) | inactive: 107%
COc1ccccc1C(=O)Nc1c(C(=O)Nc2ccccc2F)oc2ccccc12 | active: 13%
Cc1ccc(NC(=O)N2CCN(c3cc(-c4noc(C)n4)ccc3C)CC2)c(F)c1 | active: -5%
CCC(=O)Oc1ccc(C2Nc3ccccc3-c3nnc(SC)nc3O2)cc1 (configuration not stated) | inactive: 73%
Cc1ccc(S(=O)(=O)Nc2cc3c(cc2N2CCOCC2)n(C)c(=O)n3C)cc1 | inactive: 90%
Cc1ccc2nc(-c3cc(NC(=O)COc4ccc(C)c(C)c4)ccc3Cl)oc2c1 | active: 30%
COC(=O)C1CCN(S(=O)(=O)c2ccc(N3CCCCS3(=O)=O)cc2)CC1 | inactive: 78%
COC(=O)c1cc(C)nc2c1c(=O)nc(SCc1ccccc1C)n2C1CC1 | inactive: 87%
Cc1cccc(NC(=O)C(Cc2ccccc2)NS(=O)(=O)c2ccc3c(c2)c(=O)n(C)c(=O)n3C)c1 (configuration not stated) | inactive: 70%
Cc1ccc(C(=O)NCC(c2ccc3c(c2)OCO3)N2CCOCC2)cc1 (configuration not stated) | inactive: 93%
Cc1c(-c2nc(-c3ccc4c(c3)OCO4)no2)nnn1-c1ccc(C(C)C)cc1 | inactive: 92%
CCc1nn(CCCC(=O)N2CCN(c3cccc(OC)c3)CC2)c(=O)c2cc3occc3n12 | inactive: 125%
O=C(CCCc1ccccc1)NC1CC(=O)N(c2ccc(F)cc2)C1 (configuration not stated) | inactive: 73%
CC(=O)c1cccc(NS(=O)(=O)c2cc3c(cc2C)N(C(C)=O)CCO3)c1 | inactive: 95%
Cc1ccc(NC(=O)N2CCC(CN3CCCC3)CC2)c(C)c1 | inactive: 80%
Cc1ccc(-c2nc(C(=O)NCc3ccccc3Cl)c3n2CCCCC3)cc1 | inactive: 65%
CCc1cccc(NC(=O)c2ccc(NC(=O)N3CCSc4ncccc43)cc2)c1 | active: -1%
Cn1nc(OCC(N)=O)ccc1=O | inactive: 107%
O=C1c2cccc3cccc(c23)N1c1ccccc1 | inactive: 77%

SMILES | survival
COc1cccc(NC(=O)CSc2nc(-c3ccccc3Cl)nc3c2Cc2c(CO)cnc(C)c2O3)c1 | inactive: 113%
CCOc1ccc(-n2c(SCC(N)=O)nc3c(oc4ccccc43)c2=O)cc1 | inactive: 76%
COc1ccc(-c2cc(-c3ccccc3)nc(SCC(=O)Nc3ccccc3F)c2C#N)cc1 | inactive: 140%
CCOC(=O)C1=C(CS(=O)(=O)c2ccc(OC)c(Cl)c2)NC(=O)NC1c1cccc(OC)c1 (configuration not stated) | inactive: 59%
O=C(Nc1nncs1)c1ccc(F)cc1 | inactive: 80%
O=C(O)CNS(=O)(=O)c1ccc2ccccc2c1 | inactive: 91%
Cc1ccc(S(=O)Cc2nc(-c3ccc(C(=O)NCc4cccc(C)c4)cc3)oc2C)cc1 (configuration not stated) | inactive: 97%
O=C(CCn1nc(-c2ccc(Cl)cc2)ccc1=O)NCCc1ccccc1 | inactive: 78%
CC(=O)Nc1c(C)nn(-c2ccccc2)c1N1CCC(C(=O)NCc2ccccc2Cl)CC1 | active: -2%
COc1ccc(CCN2C(=O)c3[nH]nc(-c4ccccc4O)c3C2c2ccc(OC)c(OC)c2)cc1 (configuration not stated) | active: 45%
CCOC(=O)c1c(NC(=O)CSc2cn(CCNC(=O)c3c(F)cccc3F)c3ccccc23)sc2c1CCC2 | inactive: 93%
CCOC(=O)COc1ccc(F)cc1C(=O)c1ccn2nc(-c3ccc(Cl)cc3)cc2n1 | inactive: 99%
CCOC(=O)c1noc2ncnc(Nc3cccc(OC)c3)c12 | inactive: 73%
O=C(COc1ccccc1Cl)Nc1ccc2nc(SCC(=O)N3CCCC3)sc2c1 | inactive: 49%
O=C(NCc1noc2ccccc12)N1CCN(c2ccccc2)CC1 | inactive: 44%
CCc1ccccc1NC(=O)N1CCCn2nc(C)cc21 | inactive: 97%
O=C(NCC(c1ccco1)S(=O)(=O)c1cccs1)c1ccc(F)c(F)c1 (configuration not stated) | inactive: 75%
CCCn1c(C(=O)OC)cc2c1ccn2C | inactive: 78%
Cc1nc(-c2ccccc2)sc1-c1ccc(SCC(=O)NCc2ccccc2Cl)nn1 | inactive: 26%
CC1CCN(c2nn3c(=O)c(C(=O)NC(C)C)cnc3s2)CC1 | inactive: 93%
O=C(Nc1ccc(NC(=O)C2CC23CCC3)cc1)C1CC12CCC2 (configuration not stated) | inactive: 94%
COc1ccc(OC)c(C2=NS(=O)(=O)N(C)C(C(=O)Nc3ccc(F)cc3F)=C2)c1 | inactive: 72%
N#Cc1nc(-c2ccc(COc3ccc(Cl)cc3)o2)oc1N1CCC(C(N)=O)CC1 | active: 34%

SMILES | survival
Cc1ccc(C)c(NC(=O)C2CCCN(c3ncnc4onc(C)c34)C2)c1 (configuration not stated) | inactive: 94%
O=C(Cn1c(=O)n(-c2ccccc2)c(=O)c2c3c(sc21)CCCC3)Nc1ccc(F)cc1F | inactive: 90%
COc1ccc(OC)c(S(=O)(=O)NCCS(=O)(=O)N2CCN(c3ccccc3)CC2)c1 | inactive: 80%
COc1cccc(CNC(=O)c2cccc(-n3c(C)nc4cccnc43)c2)c1OC | inactive: 80%
O=C(O)CCc1ccc(-c2ccccc2)n1Cc1ccco1 | inactive: 106%
CCCCCn1c(CN2CCN(c3ccc(OC)cc3)CC2)nc2c1c(=O)[nH]c(=O)n2C | inactive: 73%
Cc1ccc(Cl)cc1NC(=O)Nc1cccc(OCc2cc(=O)n3ccccc3n2)c1 | inactive: 72%
COc1ccc(-n2c(-c3ccco3)nc3c(cnn3-c3ccccc3Cl)c2=O)cc1 | inactive: 132%
Cc1nn(C)c2c1c(-c1ccccc1)cc(=O)n2CC(=O)NC(C)c1ccccc1 (configuration not stated) | inactive: 78%
COc1ccc(OCC(=O)Nc2ccc(N3CCN(S(C)(=O)=O)CC3)cc2)cc1 | inactive: 97%
CCOc1ccc(-c2cc3nc(C4CCN(C(=O)OC(C)(C)C)CC4)c(C(=O)Nc4cc(OC)ccc4OC)cn3n2)cc1 | inactive: 67%
CCN1CCOC(=O)C1CC(=O)Nc1ccc(Br)cc1 (configuration not stated) | active: 44%
Cc1ccc(Cl)cc1NC(=O)c1sc(-n2nc(C)c(Cc3ccc4c(c3)OCO4)c2C)nc1C | inactive: 85%
O=C(Cn1c(=O)n(Cc2ccccc2)c(=O)c2sc3ccccc3c21)Nc1ccccc1 | inactive: 71%
N#C/C(=C\c1ccco1)S(=O)(=O)c1ccc(Cl)cc1 | inactive: 71%
CCC(=O)C1=C(c2ccc(OC)c(OC)c2)N(C(=O)CC)n2c(nnc2-c2ccc(C)cc2)S1 | inactive: 68%
O=C1CCC(=O)N1C(c1ccccc1)c1ccccc1 | inactive: 79%
CN(C)CCCC1(O)c2ccccc2CCc2ccccc21 | inactive: 85%
CC(=O)c1ccc(N2CCN(c3ccc4cc(S(=O)(=O)N5CCCCC5)ccc4n3)CC2)cc1 | inactive: 90%
COc1ccc(-c2nc(CS(=O)(=O)CC(=O)NCCc3ccc(C)cc3)c(C)o2)cc1 | inactive: 85%
CCOC(=O)c1ccc(NC(=O)CSc2nc3ccccc3c(=O)n2CCC(=O)NC2CCCCC2)cc1 | inactive: 91%
COc1ccc(C)cc1NC(=O)CC1NCCNC1=O (configuration not stated) | active: 76%
Cc1cc(=O)n(Cc2ccccc2)c2c1c(C)nn2C | active: 20%
